Some of the results follow. Single values are uncertain, as repeats are few or missing.
Legend:
Experiment in all cases: cell count relative to DMSO control; melanoma cells; higher = more viable cells
Settings in all cases: library dose: standard library concentration; 72 h
G361 = test system: G361
IPC-298 = test system: IPC-298
IST-MEL1 = test system: IST-MEL1
LB2518-MEL = test system: LB2518-MEL
LOXIMVI = test system: LOXIMVI
MEL-HO = test system: MEL-HO
MZ2-MEL = test system: MZ2-MEL
MeWo = test system: MeWo
RPMI7951 = test system: RPMI7951
RVH-421 = test system: RVH-421
SkMel28 = test system: SkMel28
SkMel2 = test system: SkMel2
SkMel30 = test system: SkMel30
SkMel5 = test system: SkMel5
UACC257 = test system: UACC257
UACC62 = test system: UACC62
WM115 = test system: WM115
WM1716 = test system: WM1716
WM1745 = test system: WM1745
WM3526 = test system: WM3526
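Note: cells treated in 1,536-well plates, then fixed and DAPI-stained, with nuclei counted from automated high-throughput microscope images.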

## CCN(CC)CCNC(=O)c1c(C)[nH]c(/C=C2\C(=O)Nc3ccc(F)cc32)c1C [sunitinib] + C#Cc1cccc(Nc2ncnc3cc(OCCOC)c(OCCOC)cc23)c1 [erlotinib] (first compound 2 µM, partner dose 4 µM)
G361
  cell count: 60.8%
IPC-298
  cell count: 41.3%
IST-MEL1
  cell count: 79.9%
LB2518-MEL
  cell count: 50.9%
LOXIMVI
  cell count: 110%
MEL-HO
  cell count: 63.8%
MZ2-MEL
  cell count: 58.5%
MeWo
  cell count: 50%
RPMI7951
  cell count: 36.4%
RVH-421
  cell count: 103%
SkMel28
  cell count: 43.4%
SkMel2
  cell count: 59.6%
SkMel30
  cell count: 58.4%
SkMel5
  cell count: 33.4%
UACC257
  cell count: 79.1%
UACC62
  cell count: 34.8%
WM115
  cell count: 56.7%
WM1716
  cell count: 66.1%
WM1745
  cell count: 36.2%
WM3526
  cell count: 55.3%

## C[C@]1(O)C[C@@H](c2nc(-c3ccc4ccc(-c5ccccc5)nc4c3)c3c(N)nccn32)C1 + COc1cc2c(Oc3ccc4[nH]c(C)cc4c3F)ncnc2cc1OCCCN1CCCC1 [cediranib] (first compound 2 µM, partner dose 2 µM)
G361
  cell count: 86.7%
IPC-298
  cell count: 115%
IST-MEL1
  cell count: 111%
LB2518-MEL
  cell count: 87.1%
LOXIMVI
  cell count: 37.2%
MEL-HO
  cell count: 90.7%
MZ2-MEL
  cell count: 131%
MeWo
  cell count: 76.8%
RPMI7951
  cell count: 106%
RVH-421
  cell count: 112%
SkMel28
  cell count: 148%
SkMel2
  cell count: 71.7%
SkMel30
  cell count: 95.9%
SkMel5
  cell count: 71%
UACC257
  cell count: 94.6%
UACC62
  cell count: 88.3%
WM115
  cell count: 125%
WM1716
  cell count: 124%
WM1745
  cell count: 62.5%
WM3526
  cell count: 66.5%

## CCN(CC)CCNC(=O)c1c(C)[nH]c(/C=C2\C(=O)Nc3ccc(F)cc32)c1C [sunitinib] + COc1ccc(Cl)c(Nc2nc3ccccc3nc2NS(=O)(=O)c2cccc(NC(=O)C(C)(C)N)c2)c1 [XL147] (first compound 2 µM, partner dose 4 µM)
G361
  cell count: 76.9%
IPC-298
  cell count: 68.7%
IST-MEL1
  cell count: 68.5%
LB2518-MEL
  cell count: 58.8%
LOXIMVI
  cell count: 142%
MEL-HO
  cell count: 74.8%
MZ2-MEL
  cell count: 74.7%
MeWo
  cell count: 54.9%
RPMI7951
  cell count: 62%
RVH-421
  cell count: 76.2%
SkMel28
  cell count: 48.3%
SkMel2
  cell count: 68.2%
SkMel30
  cell count: 51.4%
SkMel5
  cell count: 49.7%
UACC257
  cell count: 77.2%
UACC62
  cell count: 49.9%
WM115
  cell count: 66.1%
WM1716
  cell count: 89%
WM1745
  cell count: 54.6%
WM3526
  cell count: 46.9%

## COc1cc([C@@H]2c3cc4c(cc3[C@@H](O[C@@H]3O[C@@H]5CO[C@@H](C)O[C@H]5[C@H](O)[C@H]3O)[C@H]3COC(=O)[C@H]23)OCO4)cc(OC)c1O [etoposide] + CC1(C)CCC(c2ccc(Cl)cc2)=C(CN2CCN(c3ccc(C(=O)NS(=O)(=O)c4ccc(N[C@H](CCN5CCOCC5)CSc5ccccc5)c(S(=O)(=O)C(F)(F)F)c4)cc3)CC2)C1 [ABT263] (first compound 0.1 µM, partner dose 2 µM)
G361
  cell count: 69.1%
IPC-298
  cell count: 70.8%
IST-MEL1
  cell count: 85.4%
LB2518-MEL
  cell count: 60.1%
LOXIMVI
  cell count: 57.1%
MEL-HO
  cell count: 54.2%
MZ2-MEL
  cell count: 48.2%
MeWo
  cell count: 75.2%
RPMI7951
  cell count: 27.4%
RVH-421
  cell count: 54.4%
SkMel28
  cell count: 48.7%
SkMel2
  cell count: 50.4%
SkMel30
  cell count: 55.3%
SkMel5
  cell count: 76.5%
UACC257
  cell count: 31.8%
UACC62
  cell count: 51.1%
WM115
  cell count: 69.6%
WM1716
  cell count: 39.2%
WM1745
  cell count: 2.1%
WM3526
  cell count: 83.2%

## C[C@]1(O)C[C@@H](c2nc(-c3ccc4ccc(-c5ccccc5)nc4c3)c3c(N)nccn32)C1 + CCCCCCCCc1ccc(CCC(N)(CO)CO)cc1 [fingolimod] (first compound 2 µM, partner dose 10 µM)
G361
  cell count: 0.732%
IPC-298
  cell count: 56.2%
IST-MEL1
  cell count: 5.34%
LB2518-MEL
  cell count: 0.238%
LOXIMVI
  cell count: 9.8%
MEL-HO
  cell count: 23.9%
MZ2-MEL
  cell count: 0.914%
MeWo
  cell count: 24.3%
RPMI7951
  cell count: 1.47%
RVH-421
  cell count: 13.6%
SkMel28
  cell count: 2.66%
SkMel2
  cell count: 0.0984%
SkMel30
  cell count: 12.8%
SkMel5
  cell count: 68.8%
UACC257
  cell count: 69.2%
UACC62
  cell count: 14.2%
WM115
  cell count: 15.9%
WM1716
  cell count: 63.4%
WM1745
  cell count: 3.08%
WM3526
  cell count: 28%

## Cn1cnc2c(F)c(Nc3ccc(Br)cc3Cl)c(C(=O)NOCCO)cc21 [selumetinib] + COc1cc(Nc2ncc(F)c(Nc3ccc4c(n3)NC(=O)C(C)(C)O4)n2)cc(OC)c1OC [Tamatinib] (first compound 0.075 µM, partner dose 2 µM)
G361
  cell count: 54.8%
IPC-298
  cell count: 63.4%
IST-MEL1
  cell count: 60.3%
LB2518-MEL
  cell count: 40.5%
LOXIMVI
  cell count: 12%
MEL-HO
  cell count: 66.4%
MZ2-MEL
  cell count: 61.8%
MeWo
  cell count: 60.1%
RPMI7951
  cell count: 25.2%
RVH-421
  cell count: 83.5%
SkMel28
  cell count: 42.4%
SkMel2
  cell count: 42%
SkMel30
  cell count: 64.4%
SkMel5
  cell count: 55.3%
UACC257
  cell count: 101%
UACC62
  cell count: 56%
WM115
  cell count: 44.1%
WM1716
  cell count: 61.6%
WM1745
  cell count: 26.4%
WM3526
  cell count: 49.2%

## C[C@]1(O)C[C@@H](c2nc(-c3ccc4ccc(-c5ccccc5)nc4c3)c3c(N)nccn32)C1 + Cn1cncc1[C@@](N)(c1ccc(Cl)cc1)c1ccc2c(c1)c(-c1cccc(Cl)c1)cc(=O)n2C [tipifarnib] (first compound 2 µM, partner dose 0.05 µM)
G361
  cell count: 52.4%
IPC-298
  cell count: 79.7%
IST-MEL1
  cell count: 77.4%
LB2518-MEL
  cell count: 66.3%
LOXIMVI
  cell count: 80.3%
MEL-HO
  cell count: 83.6%
MZ2-MEL
  cell count: 89.7%
MeWo
  cell count: 64%
RPMI7951
  cell count: 59.1%
RVH-421
  cell count: 76.7%
SkMel28
  cell count: 66%
SkMel2
  cell count: 61.4%
SkMel30
  cell count: 83.2%
SkMel5
  cell count: 53.8%
UACC257
  cell count: 70.7%
UACC62
  cell count: 65.9%
WM115
  cell count: 77.8%
WM1716
  cell count: 62.2%
WM1745
  cell count: 55.6%
WM3526
  cell count: 76.4%

## CCN(CC)CCNC(=O)c1c(C)[nH]c(/C=C2\C(=O)Nc3ccc(F)cc32)c1C [sunitinib] + O=C(O)[C@@H]1[O][Sb](=[O])([O][Sb]2(=[O])[O][C@H]([C@H](O)CO)[C@H](O)[C@H](C(=O)O)[O]2)[O][C@H]([C@H](O)CO)[C@@H]1O [stibogluconate] (first compound 2 µM, partner dose 10 µM)
G361
  cell count: 53.3%
IPC-298
  cell count: 65.7%
IST-MEL1
  cell count: 93.4%
LB2518-MEL
  cell count: 53%
LOXIMVI
  cell count: 147%
MEL-HO
  cell count: 97.2%
MZ2-MEL
  cell count: 88.3%
MeWo
  cell count: 66.1%
RPMI7951
  cell count: 64.5%
RVH-421
  cell count: 417%
SkMel28
  cell count: 46.5%
SkMel2
  cell count: 61%
SkMel30
  cell count: 59.5%
SkMel5
  cell count: 62.8%
UACC257
  cell count: 98.5%
UACC62
  cell count: 62.3%
WM115
  cell count: 48.7%
WM1716
  cell count: 111%
WM1745
  cell count: 43.8%
WM3526
  cell count: 53.3%
